{"source": "the supplement of paper PMC4604168 (melanoma cell lines)", "note": "The list shows a part of the results. Repeats are few or missing, and single values can be far off.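 Further: cell number obtained by counting DAPI-stained nuclei in high-throughput microscope images with image analysis software, screen run in 1,536-well plates.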", "data": [{"test_system": "WM3526", "assay": "cell count relative to DMSO control; melanoma cells; higher = more viable cells", "details": "library dose: low library concentration; 72 h", "units": {"cell count": "%"}, "values": [{"smiles": "CN(C)S(=O)(=O)c1ccc2c(c1)/C(=C/c1cc3c([nH]1)CCCC3)C(=O)N2", "note": "+ Cc1cc([N+](=O)[O-])ccc1NS(=O)(=O)c1cc(Cl)ccc1Cl [FH535] (first compound 0.4 µM, partner dose 1 µM)", "cell count": 110}, {"smiles": "NC(=O)Nc1cc(-c2cccc(F)c2)sc1C(=O)N[C@H]1CCCNC1", "note": "+ O=C(Nc1ccccc1)c1cc([N+](=O)[O-])ccc1Cl [GW9662] (first compound 0.02 µM, partner dose 2 µM)", "cell count": 89.1}, {"smiles": "C[C@]1(c2nc3c(C(N)=O)cccc3[nH]2)CCCN1", "note": "[Veliparib] + O=C(O)C(=O)Nc1sc2c(c1C(=O)O)CCNC2 [TCS401] (first compound 1.4 µM, partner dose 1.66667 µM)", "cell count": 103}, {"smiles": "CO[C@@H]1[C@H](N(C)C(=O)c2ccccc2)C[C@H]2O[C@]1(C)n1c3ccccc3c3c4c(c5c6ccccc6n2c5c31)C(=O)NC4", "note": "[Midostaurin] + NC(=O)Nc1cc(-c2cccc(F)c2)sc1C(=O)N[C@H]1CCCNC1 [AZD7762] (first compound 0.08 µM, partner dose 0.02 µM)", "cell count": 69.2}, {"smiles": "CN(C)S(=O)(=O)c1ccc2c(c1)/C(=C/c1cc3c([nH]1)CCCC3)C(=O)N2", "note": "+ CN(NC(=O)CC(=O)NN(C)C(=S)c1ccccc1)C(=S)c1ccccc1 [STA4783] (first compound 0.4 µM, partner dose 0.006 µM)", "cell count": 80.4}, {"smiles": "CO[C@@H]1[C@H](N(C)C(=O)c2ccccc2)C[C@H]2O[C@]1(C)n1c3ccccc3c3c4c(c5c6ccccc6n2c5c31)C(=O)NC4", "note": "[Midostaurin] + CC(C)CCN1c2nc(Nc3cc(F)c(O)c(F)c3)ncc2N(C)C(=O)C1C [BID1870] (first compound 0.08 µM, partner dose 0.2 µM)", "cell count": 97.6}, {"smiles": "C=CCn1c(=O)c2cnc(Nc3ccc(N4CCN(C)CC4)cc3)nc2n1-c1cccc(C(C)(C)O)n1", "note": "+ COc1cc2c(Oc3ccc4[nH]c(C)cc4c3F)ncnc2cc1OCCCN1CCCC1 [cediranib] (first compound 0.02 µM, partner dose 0.4 µM)", "cell count": 97.2}, {"smiles": "CO[C@@H]1[C@H](N(C)C(=O)c2ccccc2)C[C@H]2O[C@]1(C)n1c3ccccc3c3c4c(c5c6ccccc6n2c5c31)C(=O)NC4", "note": "[Midostaurin] + O=C(O)c1ccc(-c2c[nH]c3ncc(-c4ccccc4)cc23)cc1C1CCCC1 [GSK650394] (first compound 0.08 µM, partner dose 0.16 µM)", "cell count": 83}, {"smiles": "C=CCn1c(=O)c2cnc(Nc3ccc(N4CCN(C)CC4)cc3)nc2n1-c1cccc(C(C)(C)O)n1", "note": "+ Cc1ccc(NC(=O)c2cccc(N(C)C)c2)cc1NC(=O)c1ccc(O)cc1 [ZM336372] (first compound 0.02 µM, partner dose 2 µM)", "cell count": 93.9}, {"smiles": "CO[C@@H]1[C@H](N(C)C(=O)c2ccccc2)C[C@H]2O[C@]1(C)n1c3ccccc3c3c4c(c5c6ccccc6n2c5c31)C(=O)NC4", "note": "[Midostaurin] + CN(C)S(=O)(=O)c1ccc2c(c1)/C(=C/c1cc3c([nH]1)CCCC3)C(=O)N2 [SU6656] (first compound 0.08 µM, partner dose 0.4 µM)", "cell count": 88.3}, {"smiles": "NC(=O)Nc1cc(-c2cccc(F)c2)sc1C(=O)N[C@H]1CCCNC1", "note": "+ Oc1cc(-c2nc(-c3ccccc3)[nH]c2-c2ccncc2)ccc1Cl [L779450] (first compound 0.02 µM, partner dose 0.2 µM)", "cell count": 61.6}]}]}
